The source gives no read counts; variants with many changes may rest on few reads.
B1: LINE1-mini (parent)
chain: GGCAGAGCUCAACACAGCGUGGCAAAGUGGCUGUGGCUAGACUGCC

Variants of: B1
Test: self-cleavage, relative activity (ratio to wild type); higher = more cleavage; in vitro, sequencing; the parent is a self-cleaving ribozyme

| Variant | self-cleavage |
| --- | --- |
| GGCAGAGCUCAACACAGCGUGGCCAAGUGUCUGUGGAUAGACUGCC [A24C G30U C37A] | 0.04 |
| GGCAGAGCUCAACACAGCGUGGCGAUGUGGCUGUAGCUAGACUGCC [A24G A26U G35A] | 0.09 |
| GGCAGAGCUCAACACAGCGUGGUAAAGUGGCUGUGGCCAGAUUGCC [C23U U38C C42U] | 0.09 |
| GGCAGAGCUCAACACAGCGUGGUAAAGUGGCGCAGGCUAGACUGCC [C23U U32G G33C U34A] | 0.03 |
| GGCAGAGCUCAACACAGCGUGGCGAAGUGGCUGUGGCUGGACUCCC [A24G A39G G44C] | 0.07 |
| GGCAGAGCUCAACACAGCGUGGCCAGGUGGCUAUGGCUAGACUCCC [A24C A26G G33A G44C] | 0.06 |
| GGCAGAGCUCAACACAGCGUGGCCAAGUGACUGUGCCUAGACUGCC [A24C G30A G36C] | 0.02 |
| GGCAGAGCUCAACACAGCGUGGCCAAGUGGCUCUGACUAGGCUGUC [A24C G33C G36A A41G C45U] | 0.09 |
| GGCAGAGCUCAACACAGCGUGGCCAAGUGGCUGUGCCUAGUCUGAC [A24C G36C A41U C45A] | 0 |
| GGCAGAGCUCAACACAGCGUGGCGAACUGGCUGUGGCUAGACUCCC [A24G G27C G44C] | 0.34 |
| GGCAGAGCUCAACACAGCGUGGCCAGGUGGCUGUGGCUAGACUGUC [A24C A26G C45U] | 0.05 |
| GGCAGAGCUCAACACAGCGUGGCGAAGCGGCUAUGGCUGGACUGCC [A24G U28C G33A A39G] | 0.09 |
| GGCAGAGCUCAACACAGCGUGGCCAAGUGGAUGUGGCUAGAGUGCC [A24C C31A C42G] | 0.09 |
| GGCAGAGCUCAACACAGCGUGGCCAGGUGGCUGUGGCUAGACUCCC [A24C A26G G44C] | 0.27 |
| GGCAGAGCUCAACACAGCGUGGCGAAGUGGCGGUGGGUAGACUGCC [A24G U32G C37G] | 0.03 |
| GGCAGAGCUCAACACAGCGUGGCGAAGGGGCUGUGGCGAGGCUGCC [A24G U28G U38G A41G] | 0.02 |
| GGCAGAGCUCAACACAGCGUGGCCAUGUGGCUGUGGGUAGAGUACC [A24C A26U C37G C42G G44A] | 0.01 |
| GGCAGAGCUCAACACAGCGUGGCCAAGUGGCUGUGGCUAGACUUCU [A24C G44U C46U] | 0.14 |
| GGCAGAGCUCAACACAGCGUGGCGAAGUGGCUGUGGCUAGACGGGC [A24G U43G C45G] | 0.02 |

| Variant | self-cleavage |
| --- | --- |
| GGCAGAGCUCAACACAGCGUGGCGAAUUUGCUGUGGCUAGACUAUC [A24G G27U G29U G44A C45U] | 0.19 |
| GGCAGAGCUCAACACAGCGUGGCCAAGUGGCUGUGGCUUGACCGCC [A24C A39U U43C] | 0 |
| GGCAGAGCUCAACACAGCGUGGCCAAGUGGCUGUUACUAGACUGCC [A24C G35U G36A] | 0.04 |
| GGCAGAGCUCAACACAGCGUGGCCAAGUGGCUGCGGCUAGACUCCC [A24C U34C G44C] | 0.07 |
| GGCAGAGCUCAACACAGCGUGGCCAAGUGGGUGUGGCUAGACUGCA [A24C C31G C46A] | 0.07 |
| GGCAGAGCUCAACACAGCGUGGCCAAUUGGCUGUGGCUAGACUGCU [A24C G27U C46U] | 0.23 |
| GGCAGAGCUCAACACAGCGUGGCCAAAUGGCUGUGACUAGACUGCC [A24C G27A G36A] | 0.06 |
| GGCAGAGCUCAACACAGCGUGGCCAAGUGGAUGUGGCAAGUCUGCC [A24C C31A U38A A41U] | 0.06 |
| GGCAGAGCUCAACACAGCGUGGCCAAGUGGCUGUGGCUCGACUACC [A24C A39C G44A] | 0.05 |
| GGCAGAGCUCAACACAGCGUGGCCAAUUGGCUGUGGCUUGACUGCC [A24C G27U A39U] | 0.3 |
| GGCAGAGCUCAACACAGCGUGGCGAAGUGGCUGUGGCUAUACAGCC [A24G G40U U43A] | 0.08 |
| GGCAGAGCUCAACACAGCGUGGCGAAGUGGCUGUAGCUACACUGCC [A24G G35A G40C] | 0.09 |
| GGCAGAGCUCAACACAGCGUGGCGCAGUGGAUGUGGCUAGACUGCC [A24G A25C C31A] | 0.07 |
| GGCAGAGCUCAACACAGCGUGGCGAAGUGGUUCCGGCUAGACUGCC [A24G C31U G33C U34C] | 0.03 |
| GGCAGAGCUCAACACAGCGUGGCGAAGUGGCUAUGGCGAGACUGCC [A24G G33A U38G] | 0.09 |
| GGCAGAGCUCAACACAGCGUGGCGAAGUGGAUGUGGCUAUACUGUC [A24G C31A G40U C45U] | 0.04 |
| GGCAGAGCUCAACACAGCGUGGUAAAGUGGCUGAGGCUAAACUGCC [C23U U34A G40A] | 0.07 |
| GGCAGAGCUCAACACAGCGUGGCCAAGUGGCUGUGGCUAGACUGGU [A24C C45G C46U] | 0.03 |
| GGCAGAGCUCAACACAGCGUGGCCAAGUGGGUGUGGCUAGACUUCC [A24C C31G G44U] | 0.01 |

| Variant | self-cleavage |
| --- | --- |
| GGCAGAGCUCAACACAGCGUGGCGAAAUGGCUGUUGCCAGACUACC [A24G G27A G35U U38C G44A] | 0.03 |
| GGCAGAGCUCAACACAGCGUGGCCAAGUGUCUGUGGCUAGACUGCA [A24C G30U C46A] | 0.07 |
| GGCAGAGCUCAACACAGCGUGGCCAAGUGGCUAUGGCUAGACUGCG [A24C G33A C46G] | 0.06 |
| GGCAGAGCUCAACACAGCGUGGCCAAGUGGCUGUGGCUAGACUGAA [A24C C45A C46A] | 0.03 |
| GGCAGAGCUCAACACAGCGUGGCCAAAUGGCUGUGGGUAGACUGCC [A24C G27A C37G] | 0.03 |
| GGCAGAGCUCAACACAGCGUGGCCAAGUUGCUGUGGCUAGACCGCC [A24C G29U U43C] | 0.06 |
| GGCAGAGCUCAACACAGCGUGGCGAAGUGACUGUGAAUAGACUGUC [A24G G30A G36A C37A C45U] | 0.05 |
| GGCAGAGCUCAACACAGCGUGGCGAAGUGUCUGUGGCUAGAGUGCC [A24G G30U C42G] | 0.03 |
| GGCAGAGCUCAACACAGCGUGGCGAACUUGCUGUGACUAGACUCCC [A24G G27C G29U G36A G44C] | 0.04 |
| GGCAGAGCUCAACACAGCGUGGCCAAGUGGCUGUGGCUAGAUUGCA [A24C C42U C46A] | 0.01 |
| GGCAGAGCUCAACACAGCGUGGCCAAGUUUCUAUGUCUAGACUGCC [A24C G29U G30U G33A G36U] | 0.12 |
| GGCAGAGCUCAACACAGCGUGGCCAAGUGGCUGUUGCUACACUGCC [A24C G35U G40C] | 0.09 |
| GGCAGAGCUCAACACAGCGUGGCCAAGUGGCUGUAGCUGGAUUCCC [A24C G35A A39G C42U G44C] | 0.14 |
| GGCAGAGCUCAACACAGCGUGGCGAAGUGGCUGUGGAUAUACUGCC [A24G C37A G40U] | 0.14 |
| GGCAGAGCUCAACACAGCGUGGCGAACUGGCUGUGGCUAGACAGCC [A24G G27C U43A] | 0.12 |
| GGCAGAGCUCAACACAGCGUGGCCAAGUGGGGGUGGCUAGACUGCC [A24C C31G U32G] | 0.02 |
| GGCAGAGCUCAACACAGCGUGGCCAAGUGCCGGUGGCUAGACUGCC [A24C G30C U32G] | 0.06 |
| GGCAGAGCUCAACACAGCGUGGCGAAGUGGCCGUGGCUAGACUGCA [A24G U32C C46A] | 0.15 |

Reference: the RNAGym collection of RNA variant scans (doi:10.7554/elife.90254)
